The whole screen tested about 52,000 compounds, of which about 1,700 (3.3%) were called active. Cut-off read from the data, not from the text of the source: active = survival mostly below about 52% (no sharp cut-off); inactive = mostly above about 56%. The list shows a part of the results.

The test system of the assay is Wild type. Description: S. aureus survival, RN4220 and DeltatarO strains – OD600, teichoic acid synthesis inhibitors, primary screen (AID 463173). As to conditions: S. aureus RN4220 wild type/DeltatarO growth, OD600, 18 h, stronger effect = lower value, screened at 18.75 µg/mL (by protocol).
As to `COc1ccc(-c2cc(OC(=O)c3ccccc3)c3c(C)oc(C)c3c(=O)c2)cc1OC`, the survival is inactive: 83%. With `CC(C)c1ccc2c(c1)NC(c1ccncc1)=NC(c1cccs1)=N2` the figure was inactive: 111%; with `COc1cccc(NC(CNS(=O)(=O)c2ccc(Cl)cc2)c2ccccc2)c1` (stereo unspecified), inactive: 89%; with `CCc1cccc(NC(=O)C(NS(=O)(=O)c2ccc3nc(C)sc3c2)C(C)C)c1` (stereo unspecified), inactive: 88%. The same measure for `O=C(CCS(=O)(=O)c1cc(Br)cc2c1N(C(=O)C1CC1)CC2)Nc1ccc(F)cc1`: inactive: 130%; for `Cc1ccc(CNC(=O)c2sc3nc(-c4ccccc4)cn3c2C)cc1`: inactive: 124%. With `Cc1ccc(Cl)cc1N1CCN(C(=O)c2ccc3c(c2)N(Cc2ccccc2F)C(=O)c2ccccc2S3=O)CC1` (stereo unspecified) the figure was inactive: 87%. `CC(C)Cn1c(=O)c2ccccc2n2c(CCC(=O)NCc3ccc(Cl)cc3)nnc12`: the survival is inactive: 92%. With `CCN(CCCNC(=O)c1cc2cc3ccc(OC)cc3nc2s1)c1cccc(C)c1` the figure was inactive: 81%; with `CCCN1C(=O)c2[nH]nc(-c3cccc(OC)c3)c2C1c1ccccn1` (stereo unspecified), inactive: 93%. With `O=C(NCc1ccc(F)cc1)c1ccc(Cn2c(SCc3ccc(F)cc3)nc3cccnc32)cc1` the figure was inactive: 78%; with `Cc1cc(C)cc(-n2c(C)nc3cc(C(=O)NCc4ccc(F)cc4)ccc32)c1`, inactive: 138%; with `Cn1nnc2c(NCc3ccccc3)ncnc21`, active: 0%. With `CCC(C)NC(=O)c1ccc2c(c1)N(Cc1ccccc1F)C(=O)c1ccccc1S2=O` (stereo unspecified) the figure was inactive: 86%. Consider `Cc1cc(C)cc(NC(=O)c2cnn(-c3ccc(C)c(C)c3)c2C2CCNCC2)c1`, for which the survival was inactive: 73%.

Take `O=C(CCC(=O)N1CCSc2ccccc21)NCc1ccccc1Cl`: the survival was inactive: 79%. The same measure for `CCOc1ccc(CCNC(=O)c2cn(-c3cccc(OC)c3)c(=O)c3ccccc23)cc1`: inactive: 87%; for `COc1cc(S(=O)(=O)N2CCCCC2C)c(OC)cc1Cl` (stereo unspecified): inactive: 105%.

Turning to `CCCCn1c(=N)c(C(=O)NC2CCCCC2)cc2c(=O)n3cccc(C)c3nc21`, the survival was inactive: 75%. The same measure for `Cc1ccc(F)c(NC(=O)C2CCCCC2C(=O)O)c1` (stereo unspecified): inactive: 108%; for `Cn1c(=O)oc2cc(S(=O)(=O)NCCC(=O)NCc3ccc(F)cc3)ccc21`: inactive: 78%; for `CCOC(=O)c1c(C)oc2nc(C)nc(NCCCN3CCN(c4ccc(F)cc4)CC3)c12`: inactive: 72%. For `CC(CNS(=O)(=O)c1ccc2c(c1)CC(=O)N2C)c1ccccc1` (stereo unspecified), the survival was inactive: 143%.

As to `Cc1ccc(C(C)C)c(OCCCn2c(=O)oc3ccccc32)c1`, the survival is active: -2%. The same measure for `COc1ccc(C(=O)NCCn2cc(SCc3cc(C)ccc3C)c3ccccc32)cc1`: inactive: 62%; for `COc1ccccc1NC(=O)c1ccc2oc(=O)c(S(=O)(=O)c3ccccc3)cc2c1`: inactive: 74%.

As for `O=C(NC(=S)N1CCCC(C(F)(F)F)C1)c1ccc(F)cc1` (stereo unspecified), the survival was inactive: 112%. With `Cc1cc(N2CCN(c3cccc(C)c3C)CC2)n2nc(C)c(-c3ccc(Cl)cc3)c2n1` the figure was inactive: 88%; with `COc1ccc(-n2c(-c3ccco3)nc3c(cnn3-c3ccccc3C)c2=O)cc1`, inactive: 122%; with `Cc1ccccc1CNC(=O)c1cc2cc(S(=O)(=O)N3CCCCC3)ccc2n1C`, inactive: 66%. Regarding `CCOc1ccc(C2c3c(oc4ccccc4c3=O)C(=O)N2c2nnc(C)s2)cc1OC` (stereo unspecified), the survival was inactive: 85%.

On to `Cc1cc(C)c2oc(C(=O)Nc3ccc(S(=O)(=O)N4CCC(C)CC4)cc3)cc(=O)c2c1`, for which the survival was inactive: 80%. The same measure for `Cc1ccc(CN2CCN(C3CCN(C(=O)Nc4ccccc4C(F)(F)F)CC3)C(=O)C2=O)cc1`: inactive: 72%.

Turning to `Cc1cc(C)n2c(Nc3ccccc3)c(-c3ccccc3)nc2n1`, the survival is inactive: 86%.

With `Cc1cccc(Cn2cnc3c(cnn3-c3ccc(Cl)cc3)c2=O)c1`, the survival is inactive: 97%.

`Cn1c(CNC(=O)CSc2nc(-c3cccc(Cl)c3)nc3cc(=O)[nH]n23)nc2ccccc21`: the survival was inactive: 128%.

In the case of `CCn1c(=O)cc(OCC(=O)N2CCN(c3ccccc3OC)CC2)c2ccccc21`, the survival was inactive: 79%. With `Cc1ccc(S(=O)(=O)n2nc(-c3ccco3)nc2NCc2ccccc2Cl)cc1` the figure was inactive: 85%; with `Cc1cccc(Cn2nnc(C(=O)Nc3cc(C)ccc3C)c2N)c1`, inactive: 95%; with `Cc1cccc(C)c1NC(=O)CCCN1C(=O)CCn2nc(-c3cn(C)c4ccccc34)cc21`, inactive: 136%. As to `COc1cccc(NC(=O)C2CCN(c3nc4ccccc4nc3C(F)(F)F)CC2)c1`, the survival was inactive: 47%.

Regarding `CC(C)NC(=O)C1CCCN(c2ncnc3c2nc2n3CCCCC2)C1` (stereo unspecified), the survival was inactive: 73%. With `Cc1ccc(CNC(=O)CCCn2c(=O)c3ccccc3n(Cc3ccccc3C)c2=O)cc1` the figure was inactive: 84%; with `CC(NC(=O)c1ccc2c(c1)N(Cc1ccc(Cl)cc1)C(=O)c1ccccc1S2=O)c1ccccc1` (stereo unspecified), inactive: 99%; with `CC(C)C(=O)N1C2CCC1CC(O)(c1ccccc1F)C2` (stereo unspecified), inactive: 101%. With `Cc1cc(C)c2sc(NC(=O)c3ccc(S(=O)(=O)N4CCOCC4)cc3)nc2c1` the figure was inactive: 95%.

With `COc1ccc(C(=O)NCC(c2ccc(N(C)C)cc2)N2CCc3ccccc32)cc1` (stereo unspecified), the survival is inactive: 128%. Regarding `Cn1c(=O)n(C)c2cc(N3CCOCC3)c(NC(=O)c3c(F)cccc3F)cc21`, the survival is inactive: 98%. In the case of `CCCN1CCN(c2cc3c(cc2F)c(=O)c(S(=O)(=O)c2ccc(Cl)cc2)cn3C)CC1`, the survival is inactive: 70%. With `O=C(NC1CC(=O)N(c2cccc(F)c2)C1)C(c1ccccc1)c1ccccc1` (stereo unspecified) the figure was inactive: 71%; with `CCc1cc2c(-c3ccccc3)cc(=O)oc2c2c1OCN(Cc1ccc(F)cc1)C2`, inactive: 81%; with `COc1cc(OC)c(NC(=O)Nc2c(C)n(C)n(-c3ccccc3)c2=O)cc1Cl`, inactive: 69%. `CON(C)c1nc(Cl)nc(N(C)C)n1`: the survival is inactive: 84%. The same measure for `CCOc1ccc(CNC(=O)C2Cc3ccccc3N2C(=O)CC)cc1` (stereo unspecified): inactive: 83%; for `COC(=O)c1ccccc1NC(=O)c1ccc2c(=O)n3c(nc2c1)CCCCC3`: inactive: 113%.

For `CCC(Oc1ccccc1)C(=O)Nc1ccc(OCc2cc(=O)n3ccccc3n2)cc1` (stereo unspecified), the survival is inactive: 73%.
